Experimental data from the supplement of paper PMC10126150.
Values marked as one replicate rest on one cluster of the flow cell; about a third of the high ones do not repeat.

Each sequence was assayed on ATP (assay: switch fluorescence ratio, 500 uM ATP over buffer (Cy3 cluster intensity, sum of 5 cycles each) (fold (ratio)); higher = stronger signal-on switching upon ATP binding; sequences stand for … in TCGTCGGCAGCGTCAGATGTGTATAAGAGACAGTTTTTTTTTTTTTTTTTTTTTTTTT…TC). Conditions: aptamer strand: ATP DNA aptamer (quencher-CACCTGGGGGAGTATTGCGGAGGAAGG + anchor), 100 nM annealed; ATP concentration: 500 uM; one replicate.
Method in brief: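 Values give the fluorescence ratio for each switch-domain sequence, averaged from per-cluster ratios of summed target-cycle to summed buffer-cycle Cy3 intensity. The Cy3-labelled switching-strand clusters sat on a modified Illumina MiSeq flow-cell, were annealed to 100 nM quencher-labelled ATP aptamer, and were imaged in selection buffer, then after 15 min with 500 uM ATP at 22 °C. Five cycles ran with NaOH stripping and re-annealing between them, and clusters outside 100-1000 RFU were excluded.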
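Also: ATP exposure 15 min at 22 °C before imaging.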

Sequence | switch fluorescence ratio
TCAAGTCGTA | 0.998
TCAAGTGG | 1.02
TCAAGTGGG | 1
TCAAGTTCTA | 1.01
TCAATACCAG | 1.05
TCAATGCAGG | 1.06
TCAATGTAAG | 0.95
TCAATTCGTG | 0.988
TCAATTGCAT | 1.02
TCAATTTATG | 1
TCACAAAAC | 1.07
TCACAATAGG | 1.04
TCACACATTA | 0.999
TCACACATTT | 1.01
TCACAGCAGC | 1.47
TCACAGTTTC | 1.03
TCACATATAA | 1.09
TCACATTACC | 1.35
TCACCAGCTC | 1.04
TCACCATTAT | 1.01
TCACCCAACG | 1.35
TCACGAGCTA | 1.13
TCACGCTCTT | 0.999
TCACGGGACG | 1.03
TCACGGTGAA | 1.06

Sequence | switch fluorescence ratio
TCACGTATGG | 1.07
TCACGTCCGA | 1.02
TCACTAAATG | 1.06
TCACTAATA | 1.04
TCACTAGGGA | 1.02
TCACTGAGGG | 1.05
TCACTTCCGT | 1.16
TCAGAAGGAG | 1
TCAGAGAAGG | 0.995
TCAGAGCAAG | 3.47
TCAGATTAGG | 0.956
TCAGCGTCGG | 0.948
TCAGCTCTCA | 1.04
TCAGCTGAGG | 1.04
TCAGCTTATG | 0.937
TCAGGAAGTC | 2.02
TCAGGAGTT | 1.01
TCAGGATATT | 1.02
TCAGGCGTCT | 1.03
TCAGGGAAGT | 0.978
TCAGGGGAAA | 1.02
TCAGGTCATC | 1.02
TCAGGTCGTA | 0.967
TCAGGTTTCT | 0.981
TCAGGTTTGC | 1

Sequence | switch fluorescence ratio
TCAGTATTAC | 1.15
TCAGTCTCCT | 1.02
TCAGTGGAAA | 1
TCAGTGGGTC | 0.954
TCAGTTCAGA | 1.01
TCAGTTCTGA | 1.01
TCAGTTTTT | 1.03
TCATAAAGGT | 1.06
TCATAATATT | 0.989
TCATAATCAA | 0.99
TCATAATCGC | 1.03
TCATACAC | 1.12
TCATACGTGC | 1.25
TCATAGGAAC | 1.05
TCATAGGGCT | 0.987
TCATATAAAT | 0.961
TCATCACTCG | 1.05
TCATCAGGTT | 1.05
TCATCATCTA | 1.07
TCATCCAGTC | 1
TCATCGCCCC | 2.26
TCATCGTTTG | 1.01
TCATCTCAGC | 1.04
TCATCTGTTT | 1.07
TCATGAAAGA | 0.923

Sequence | switch fluorescence ratio
TCATGAAAGG | 0.997
TCATGAGAGC | 0.934
TCATGGCAGG | 0.994
TCATGGCGTC | 1
TCATGGGAA | 1
TCATGGGACG | 0.969
TCATTACAGG | 1.15
TCATTAGATG | 0.968
TCATTAGTTA | 1
TCATTATGAT | 1.01
TCATTCATGC | 1.04
TCATTCCGCG | 2.4
TCATTTTTGT | 0.996
TCCAAACATC | 0.951
TCCAAATGGT | 0.991
TCCAAATTCA | 1.06
TCCAACTTG | 0.994
TCCAAGGTTG | 1.01
TCCAATAGGA | 0.978
TCCAATTTGC | 1.08
TCCACATTTC | 1.07
TCCACCGGTG | 1.13
TCCACGCTTA | 1.06
TCCACTACAT | 1.08
TCCAGAGGGT | 1.01

Sequence | switch fluorescence ratio
TCCAGCACGG | 1.01
TCCAGGATCG | 1.02
TCCAGGGCCA | 1.03
TCCAGTCCGG | 0.996
TCCAGTCTAC | 1.14
TCCATAATTT | 0.974
TCCATAGTAA | 3.37
TCCATATATC | 1.04
TCCATGCTG | 1.04
TCCATGTCCG | 0.948
TCCATTCTAA | 1.01
TCCCAATTTC | 1.3
TCCCACCTCC | 1.39
TCCCAGAACT | 0.99
TCCCAGGGGG | 1.47
TCCCAGTCTC | 1.05
TCCCATCTCT | 1.04
TCCCCATTG | 1.12
TCCCCATTGT | 1.05
TCCCCCAGTG | 4.08
TCCCCCCTAG | 1.43
TCCCCCTGCT | 1.15
TCCCCGGCTG | 2.45
TCCCCGGTCG | 1.18
TCCCCGGTTT | 1.45

Sequence | switch fluorescence ratio
TCCCCTATAC | 2.39
TCCCGATCTG | 1.01
TCCCGCGAAG | 1.21
TCCCGCTACC | 3.48
TCCCGTGTGT | 1.13
TCCCTGAAGC | 1.07
TCCCTGCTTG | 1.01
TCCGAATGCT | 2.38
TCCGAGAGTT | 1.11
TCCGAGTGCA | 2.81
TCCGATTCAT | 1.24
TCCGCGTAGA | 1.05
TCCGGAGATT | 1.77
TCCGGCAATT | 1.19
TCCGGCACA | 1.68
TCCGGCACTA | 1.39
TCCGGCCTTT | 1.05
TCCGGCGATC | 3.73
TCCGGGCAAG | 2.87
TCCGGGGGCC | 1
TCCGGGTTCA | 0.981
TCCGGTTAAT | 1.06
TCCGTAATTT | 2.03
TCCGTAGGTG | 1.31
TCCGTATAGA | 0.99

Sequence | switch fluorescence ratio
TCCGTCTATT | 1.09
TCCGTCTCCG | 1.31
TCCGTGGACG | 0.939
TCCGTTATTC | 1.43
TCCGTTCCTA | 1.07
TCCGTTGTCG | 1.03
TCCTAAATTC | 1.07
TCCTAAATTT | 0.992
TCCTAACCGT | 1.19
TCCTACATGA | 1.12
TCCTAGACTA | 0.974
TCCTAGGGCG | 0.959
TCCTCAGAGA | 1.5
TCCTCGGATA | 1.47
TCCTCTGAGT | 1.44
TCCTGAAGGC | 1
TCCTGCAGAG | 1.65
TCCTGCAGAT | 1.2
TCCTGGAAAA | 1.03
TCCTGGGGTT | 0.986
TCCTGTGGCA | 1.18
TCCTGTTCTT | 0.942
TCCTGTTTCT | 1.01
TCCTTAAAAG | 0.949
TCCTTAGGCA | 1.14

Sequence | switch fluorescence ratio
TCCTTGGTTT | 0.984
TCCTTTAAAC | 1.05
TCCTTTCAAC | 1.14
TCCTTTTCGC | 1.22
TCCTTTTGAA | 0.993
TCGAAGCTAG | 1.53
TCGAAGCTTA | 2.28
TCGAATTTCC | 1.02
TCGACAGCTA | 1.01
TCGACATTGC | 1.19
TCGACGCTTT | 2.03
TCGAGACCGG | 1.11
TCGAGAGCAA | 6.94
TCGAGGCCTG | 0.947
TCGAGGGAAA | 1.01
TCGAGTGCGA | 1.1
TCGAGTTTAG | 1.02
TCGATAATGG | 0.969
TCGATAATGT | 1.04
TCGATACCAT | 0.979
TCGATAGGAA | 1
TCGATAGGAG | 1.02
TCGATAGGCG | 1.01
TCGATCATCG | 1.01
TCGATCTAAG | 0.956
